The record followed here is US20220053773A1 (priority 2018, published 2022).

Bridge positions count the residues as written; N and C are the ends. Ends that are not written are not given here. Peptide text beside a SMILES is read from it.

The conditions of the data set: FIG. 8.

As for `CC[C@H](C)[C@H](NC(=O)[C@H](CCCCN)NC(=O)[C@H](CC(C)C)NC(=O)[C@@H]1CSSC[C@H](NC(=O)[C@H](CC(C)C)NC(=O)[C@H](CCCCN)NC(=O)[C@@H](NC(=O)[C@@H](N)CC(C)C)[C@@H](C)CC)C(=O)N[C@@H](CCCCN)C(=O)N[C@@H](CCCCN)C(=O)N[C@@H]([C@@H](C)CC)C(=O)N[C@@H](CC(C)C)C(=O)N[C@@H](CCCCN)C(=O)N[C@@H](CCCCN)C(=O)NCC(=O)N2CCC[C@H]2C(=O)NCC(=O)N[C@@H](CCCNC(=N)N)C(=O)N[C@@H](CCCCN)C(=O)N[C@@H](CCCCN)C(=O)N[C@@H](CC(C)C)C(=O)N[C@@H]([C@@H](C)CC)C(=O)N[C@@H](CCCCN)C(=O)N[C@@H](CCCCN)C(=O)N1)C(=O)N[C@@H](CC(C)C)C(=O)O` [CYS26P] (H-LIKLCKKILKKGPGRKKLIKKCLKIL-OH; disulfide 5-22), the phytotoxicity result is given as “low phytotoxcicity”.

Regarding “LIKLIKKILKKGPGRKKLIKKILKILGPGR [Peptide P30]”, the phytotoxicity result is given as “low phytotoxcicity”.
